Several values for one entry are separate records, joined by “and”; a condition that tells them apart may be missing. Identical values can stand only once. Out of some 16,000 compounds screened, about 40 (0.2%) were called active. Not shown: some 1% with an inconclusive outcome. Calls follow the shape of the dose curve; as a rule, active = well fitted activation curve with a large enough effect; inconclusive = small, poorly fitted or top-dose-only effect, or another doubt; inactive = no such curve, though single readings can be large or run the other way. This is one part of the list.
These molecules were tested against Rap guanine nucleotide exchange factor 4 (Homo sapiens) (UniProt Q8WZA2) (assay: Validation qHTS for agonist of cAMP-regulated guanine nucleotide exchange factor 4 (EPAC2)). Details: EPAC2 Rap1B BODIPY-GDP exchange, fluorescence; activation: active compounds read high.
Procedure, shortened: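 Fluorescent exchange assay: 100 nM EPAC2 with 250 nM RAP1B-BODIPY-GDP and 50 uM GDP; compound added, 5 min at room temperature, then read (ex 480/em 540 nm) every 5 min for 30 min. Normalized to 6.5 mM cAMP agonist control.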
% is scaled to controls: 0 for no effect and ±100 for the full control effect.
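Also: exchange makes BODIPY-GDP fluorescence drop when released from Rap1B; series mostly up to about 150 µM.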

Chain of UniProt Q8WZA2 (Q8WZA2 whole entry, looked up): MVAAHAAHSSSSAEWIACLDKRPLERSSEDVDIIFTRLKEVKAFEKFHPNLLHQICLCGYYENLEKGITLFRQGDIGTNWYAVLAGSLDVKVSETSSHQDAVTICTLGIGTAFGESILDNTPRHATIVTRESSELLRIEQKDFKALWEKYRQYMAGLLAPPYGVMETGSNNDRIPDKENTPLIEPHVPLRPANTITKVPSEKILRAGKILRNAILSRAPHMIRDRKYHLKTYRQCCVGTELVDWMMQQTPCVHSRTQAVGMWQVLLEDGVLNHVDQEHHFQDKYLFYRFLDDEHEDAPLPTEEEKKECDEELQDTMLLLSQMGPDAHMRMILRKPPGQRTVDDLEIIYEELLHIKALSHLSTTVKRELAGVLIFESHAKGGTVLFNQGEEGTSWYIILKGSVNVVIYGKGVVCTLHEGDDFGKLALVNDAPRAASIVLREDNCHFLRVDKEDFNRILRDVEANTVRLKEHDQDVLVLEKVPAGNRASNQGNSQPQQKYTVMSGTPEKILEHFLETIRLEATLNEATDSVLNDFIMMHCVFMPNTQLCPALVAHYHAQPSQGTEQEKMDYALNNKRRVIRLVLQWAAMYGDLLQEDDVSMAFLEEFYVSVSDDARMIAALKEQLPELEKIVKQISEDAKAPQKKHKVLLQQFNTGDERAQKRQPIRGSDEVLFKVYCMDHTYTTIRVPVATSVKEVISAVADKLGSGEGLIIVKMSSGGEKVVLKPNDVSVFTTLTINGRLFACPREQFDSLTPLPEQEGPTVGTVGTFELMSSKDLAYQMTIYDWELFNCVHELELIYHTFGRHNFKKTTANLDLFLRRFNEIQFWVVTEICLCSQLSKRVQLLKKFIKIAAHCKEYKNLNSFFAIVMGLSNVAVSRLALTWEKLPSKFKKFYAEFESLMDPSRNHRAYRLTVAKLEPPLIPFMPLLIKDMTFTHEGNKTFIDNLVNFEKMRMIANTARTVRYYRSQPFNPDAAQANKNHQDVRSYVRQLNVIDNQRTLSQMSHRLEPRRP

activation, inactive:
Nc1nc2c(ncn2C2CC(O)C(CO)O2)c(=O)[nH]1 (stereo not drawn) -3.58%
CN1C(=O)CN2CCc3ccccc3C2c2cc(Cl)ccc21 (stereo not drawn) 12%
COc1cc(=O)n2c(c1C(=O)NCc1ccco1)CCN(C(=O)c1ccccc1-c1ncc[nH]1)CC2 -9.86%
COc1cc(-c2noc(C)c2C(=O)NCCO)cc(OC)c1OC -10.5%
O=C1NCCN1CCN1CCC(c2cn(-c3ccc(F)cc3)c3ccc(Cl)cc23)CC1 14.6% and 3.88%
O=C1CCC(N2C(=O)c3ccccc3C2=O)C(=O)N1 (stereo not drawn) 2.83% [middle of 4 runs]
CCCCC[C@H]1CN(C2CCCCC2)C(=O)[C@@H]1CC(=O)NCc1ccccc1 -37%
NCCCC[C@@H](N)C(=O)O 2.13%
C[C@H](N)C(=O)N[C@@H](C)P(=O)(O)O 8.51%
CC(=O)Nc1ccc(SC[C@H](C)CN2CC[C@H](C(C)(C)C)CCC2=O)cc1 -35.4%
COc1cc2c(cc1OC)C(=O)Cc1ccc3c(c1CN(C)CC2)OCO3 -4.62% and -1.37%
COc1cccc(-c2ccc(O)c(CNCc3cccc(OC)c3OC)c2)n1 -6.91%
CC(=O)OC1CC(OC(C)=O)[C@]2(C)C(CC(OC(C)=O)[C@@]3(C)C4=CC(=O)OC(c5ccoc5)[C@]4(C)CCC32)C1(C)C (stereo partly drawn) -12.7%
CN(C)c1ccc(-c2ccc3ncnc(N4CCNCC4)c3c2)cc1 -9.63%
N[C@@H](Cn1cc(I)c(=O)n(Cc2ccc(C(=O)O)cc2)c1=O)C(=O)O 2.18%
O=C1CC(C(=O)N2CCCC(c3nc(-c4ccncc4)ncc3-c3ccccc3)C2)C2(CCCCC2)O1 (stereo not drawn) 0.995%
CN(C)c1ncc2nc(-c3cc(F)cc(F)c3)c(=O)n(-c3ccccc3)c2n1 6.71%
O=C1[C@@H]2[C@H]3CC[C@H](C3)[C@@H]2C(=O)N1CCCCN1CCN(c2ncccn2)CC1 2.5%
CC(C)(COP(=O)(O)OP(=O)(O)OC[C@H]1O[C@@H](n2cnc3c(N)ncnc32)[C@H](O)[C@@H]1OP(=O)(O)O)C(O)C(=O)NCCC(=O)NCCS (stereo partly drawn) -28.5%
CC(=O)OCC1=C(C(=O)O)N2C(=O)[C@@H](NC(=O)Cc3cccs3)[C@H]2SC1 8.96% and -9.97%
CCn1nc(C)cc1C(=O)NCC1Cc2cc(C)cc(-c3ccccc3C(=O)OC)c2O1 (stereo not drawn) -13.8%
CCOc1ccc(NC(=O)CC(C)O)cc1 (stereo not drawn) -0.749%
COc1ccc2[nH]cc(CCNc3ccnc(-c4ccccc4C)n3)c2c1 4.73%
CNC(C)C#Cc1c(-c2cc(OC)c(OC)c(OC)c2)noc1C (stereo not drawn) -19.2%
CCN(CC)CCNC(=O)COc1ccc(OC)cc1 -3.45%
Cc1nc2n(c(=O)c1CCN1CCC(c3noc4cc(F)ccc34)CC1)CCCC2O (stereo not drawn) 1.22%
Cc1cccc(CNc2ncnc3ccc(-c4cccc(NS(C)(=O)=O)c4)cc23)c1 1.39%
COCCNc1ccnc(-c2cccc(NS(C)(=O)=O)c2)n1 -7.27%
OC[C@@H]1O[C@@H](n2cnc3c(N[C@H]4CCC[C@@H]4O)ncnc32)[C@H](O)[C@H]1O -11.6%
COc1ccc(-c2nc3ccc(C4=NNC(=O)CC4C)cc3[nH]2)cc1 (stereo not drawn) 9.07%
C=CCCCCCCCCC(=O)O -12.7%
CCCN(CCC)C(=O)C(CCC(=O)OCCCN1CCN(CCOC(=O)Cc2c(C)n(C(=O)c3ccc(Cl)cc3)c3ccc(OC)cc23)CC1)NC(=O)c1ccccc1 (stereo not drawn) -25.7%
CC1(C)S[C@@H]2[C@H](NC(=O)Cc3ccccc3)C(=O)N2[C@H]1C(=O)O 3.56%
COc1ccc2c(c1)CCC1[C@@H]2CCC2(C)[C@@H](NCCCCCCN3C(=O)C=CC3=O)CC[C@@H]12 (stereo partly drawn) -18.3%
C[C@]12C[C@H](O)CC(CO)(CO)C1[C@H](O)C[C@@]13CC4[C@@H](CC12)[C@@]4(C)C3 (stereo partly drawn) -23%
c1ccc2occc2c1 -16.4%
COc1cc(=O)n2c(c1C(=O)N(C)Cc1nonc1C)CCN(Cc1ccsc1)CC2 -5.57%
CCOC(=O)C1(O)Oc2cc(OC)cc(OC)c2C(=O)C1c1ccccc1 (stereo not drawn) -1.3%
COc1c(O)cc2oc3cc(O)c(CC=C(C)C)c(O)c3c(=O)c2c1CC=C(C)C 2.42% and 12.1% and 2.9%
CC(=O)C[C@H]1c2cc(F)cc(F)c2S(=O)(=O)N1C1CCN(Cc2ccccc2)CC1 -11.4%
Cc1cnc(CNc2ncncc2-c2cccc(C#N)c2)cn1 -8.88%
COc1ccccc1CNc1ccnc(-c2cccc(C#N)c2)n1 -4.49%
CC[C@H](C)[C@H](NC(=O)[C@H](C)NC(=O)[C@H](CC(N)=O)NC(=O)[C@H](CCCCN)NC(=O)[C@H](Cc1ccccc1)NC(=O)[C@H](CC(C)C)NC(=O)[C@@H](NC(=O)[C@@H](NC(=O)[C@H](CC(C)C)NC(=O)[C@@H]1CCCN1C(=O)[C@@H](NC(=O)[C@H](CCC(N)=O)NC(=O)[C@H](CO)NC(=O)[C@H](CCCCN)NC(=O)[C@H](CCC(=O)O)NC(=O)[C@H](CO)NC(=O)[C@@H](NC(=O)[C@H](CCSC)NC(=O)[C@H](Cc1ccccc1)NC(=O)CNC(=O)CNC(=O)[C@@H](N)Cc1ccc(O)cc1)[C@@H](C)O)[C@@H](C)O)C(C)C)[C@@H](C)O)C(=O)N[C@H](C(=O)N[C@@H](CCCCN)C(=O)N[C@@H](CC(N)=O)C(=O)N[C@@H](C)C(=O)N[C@@H](Cc1ccc(O)cc1)C(=O)N[C@@H](CCCCN)C(=O)N[C@@H](CCCCN)C(=O)NCC(=O)N[C@@H](CCC(=O)O)C(=O)O)[C@@H](C)CC 6.35%
CCNc1ncc2nc(-c3cc(F)cc(F)c3)c(=O)n(-c3ccc(OC)cc3)c2n1 -4.69%
C[n+]1ccccc1/C=N/O 9.01% and -5.02%
N#Cc1cccc(NC(=O)N2CC3(CCN(C(=O)c4ccco4)CC3)C2)c1 -20.1%
CC[C@@H](C)[C@H]1O[C@]2(CC[C@@H]1C)C[C@@H]1C[C@H](C/C=C(/C)[C@H](O[C@@H]3C[C@H](OC)[C@H](O[C@@H]4C[C@H](OC)[C@@H](O)[C@H](C)O4)[C@H](C)O3)[C@@H](C)/C=C\C=C3CO[C@@H]4[C@H](O)C(C)=C[C@@H](C(=O)O1)[C@]34O)O2 (tested in a mixture with another compound) -14.6%
Clc1ccccc1-c1ccc2ncnc(NCCN3CCOCC3)c2c1 1.1%
COc1ccc(C(=O)OC2CC3CC[C@H](C2)N3C(C)=O)cc1OC (stereo partly drawn) -11.5%
CCOc1cc(N)c(Cl)cc1C(=O)NCC1CN(Cc2ccc(F)cc2)CCO1 (stereo not drawn) 8.42%
COc1ccc(-c2cc(C)cc3c2OC(CNC(=O)c2cc(C(C)C)on2)C3)nn1 (stereo not drawn) -11%
Cc1cccc(Nc2ccccc2C(=O)O)c1C -8.02% and 7.21%
Nc1ccc(/C=C/c2ccc(N)cc2S(=O)(=O)O)c(S(=O)(=O)O)c1 1.01%
COc1ccc(/C=C/C(=O)c2cc(O)ccc2O)cc1 -8.32%
Cc1sc2ccccc2[n+]1CCc1ccccc1 -16.1%
C=C1C(=O)O[C@@H]2[C@H]3O[C@]3(C)CCC=C(C)CC[C@@H]12 -14.3% and -29%
O=C(c1cnccn1)N1CCC[C@@]2(CCN(Cc3ccccc3)C2)C1 -6.97%
O=C(Nc1ccccc1)N1CCC2(CC1)CCN(C(=O)c1ccco1)CC2 -14%
Cc1nc2cnc(Oc3cccc(Cl)c3)nc2n(CCc2ccccc2)c1=O -11.6%
CN(CCOc1ccc(C[C@H](Nc2ccccc2C(=O)c2ccccc2)C(=O)O)cc1)c1ccccn1 -17.1%
O=C(CN1Cc2ccccc2OC(c2ccccc2)C1)NCc1cccnc1 (stereo not drawn) -4.28%
CC(C)C[C@@H](NC(=O)[C@@H](O)[C@H](N)Cc1ccccc1)C(=O)O -4.49%
COc1cc(=O)n2c(c1C(=O)NC(C)c1ccco1)CCN(C(=O)c1ccc3c(c1)OCCO3)CC2 (stereo not drawn) -2.33%
CC(N)C(=O)OC(C)(C)Cc1ccc(Cl)cc1 (stereo not drawn) -10.4% and -23.6%
CN(C)C(=O)c1ccc(-c2cncnc2NCCc2cnc[nH]2)cc1 -5.85%
C=CCSCC=C -1.61%
O=C(C[n+]1ccncc1)c1ccc2c(c1)CCCC2 -35.4%
OC1CCC2Cc3ccccc3N=C12 (stereo not drawn) 8.71%
O=C(O)CCC(=O)C(=O)O 2.36%
Cc1ccsc1C(=CCCN1CCC[C@@H](C(=O)O)C1)c1sccc1C -18.2%
O=C(NC1CCC(=O)N(CCOc2ccccc2)CC1)OCc1ccccc1 (stereo not drawn) -15.6%
Cc1ccc(CN2CCOc3ccc(CN4CCC(Oc5cccnc5)CC4)cc3C2)o1 -9.81%
COC(=O)[C@@H]1CCCN1C(=O)c1cnn(-c2ncc3c(n2)-c2ccccc2CCC3)c1C1CC1 -5.26%

Source: PubChem BioAssay AID1645887 (National Center for Advancing Translational Sciences (NCATS), 2021)
